In paper PMC5681660, “Reduced hepatitis B and D viral entry using clinically applied drugs as novel inhibitors of the bile acid transporter NTCP” (Scientific Reports, 2017):

What was measured:
human NTCP [1] = biological target: T1, human NTCP (Homo sapiens, UniProt Q14973); test: Screening taurocholate uptake assay (96-well, [14C]taurocholate, 10 µM drug); conditions: for remaining activity at 10 µM: 10 min, read-out: %NTCP activity
T1 sequence (Q14973 1-349): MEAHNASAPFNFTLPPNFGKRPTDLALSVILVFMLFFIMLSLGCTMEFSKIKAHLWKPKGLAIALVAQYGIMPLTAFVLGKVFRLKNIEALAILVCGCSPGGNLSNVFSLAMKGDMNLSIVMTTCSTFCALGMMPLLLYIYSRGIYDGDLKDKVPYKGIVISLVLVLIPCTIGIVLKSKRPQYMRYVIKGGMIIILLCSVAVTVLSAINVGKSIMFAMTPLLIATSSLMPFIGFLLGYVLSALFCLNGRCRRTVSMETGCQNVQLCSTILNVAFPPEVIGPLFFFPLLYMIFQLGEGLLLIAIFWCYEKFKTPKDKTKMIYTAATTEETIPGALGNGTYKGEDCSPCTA

human NTCP [2] = biological target: T1, human NTCP; test: Screening fluorescent competitive Myrcludex B-FITC binding assay (96-well, 10 µM drug)
[3] = Prestwick library screen, 10 µM drug, [14C]taurocholate uptake
[4] = Prestwick library screen, 10 µM drug, Myrcludex B-FITC binding
[5] = 0.5 h, read-out: %NTCP binding, Prestwick library screen, 10 µM drug, Myrcludex B-FITC binding
[6] = Prestwick library screen, Myrcludex B-FITC binding, 10 µM drug

Compound	remaining activity at 10 µM (human NTCP [1]) [%]	remaining activity at 10 µM (human NTCP [2]; 0.5 h, read-out: %NTCP binding) [%]	other results
CSc1nc2cc(Cl)c(Oc3cccc(Cl)c3Cl)cc2[nH]1 [Triclabendazole]	114	72.7	
CNC1(C)C2CCC(C2)C1(C)C (stereo not drawn) [Mecamylamine hydrochloride]	86.9	95.4	
NCc1ccccc1CC(=O)N[C@@H]1C(=O)N2C(C(=O)O)=C(CSc3nnnn3CC(=O)O)CS[C@H]12 [Ceforanide]	66.8	60.6	
CN(C)CCc1c[nH]c2ccc(Cn3cncn3)cc12 [Rizatriptan benzoate]	50	108	
CC1=NS(=O)(=O)c2cc(Cl)ccc2N1 [Diazoxide]	23	73.9	
COc1ccccc1OCC(O)COC(N)=O (stereo not drawn) [Methocarbamol]	75.9	76.9	
O=C1NCCN1c1ncc([N+](=O)[O-])s1 [Niridazole]	23.8	46.6	
COC(=O)C1=C(C)NC(C)=C(C(=O)O[C@@H]2CCCN(Cc3ccccc3)C2)[C@@H]1c1cccc([N+](=O)[O-])c1.Cl (racemic) [Benidipine hydrochloride]			%NTCP activity (human NTCP [1]): 53.5157%; %NTCP binding (human NTCP [2]; screen, 10 µM drug, Myrcludex B-FITC binding): 79.0898%
Cc1ccc(-c2ncc(Cl)cc2-c2ccc(S(C)(=O)=O)cc2)cn1 [Etoricoxib]	119	72.2	
CC(C)(C)NC(=O)[C@@H]1CN(Cc2cccnc2)CCN1C[C@@H](O)C[C@@H](Cc1ccccc1)C(=O)N[C@H]1c2ccccc2C[C@H]1O [Indinavir sulfate]	81	67.9	
C[C@H]1C[C@@H]2[C@H]([C@@H](O)C[C@@]3(C)[C@H]2CC[C@]3(O)C(=O)CO)[C@@]2(C)C=CC(=O)C=C12 [Methylprednisolone, 6-alpha]			%NTCP activity (human NTCP [1]; [3]): 51.1636%; %NTCP binding (human NTCP [2]; [4]): 71.5885%
NS(=O)(=O)c1cc(Cl)c(Cl)c(S(N)(=O)=O)c1 [Dichlorphenamide]	110	107	
CC1(C)O[C@@H]2C[C@H]3[C@@H]4CCC5=CC(=O)CC[C@]5(C)[C@@]4(F)[C@@H](O)C[C@]3(C)[C@]2(C(=O)CCl)O1 [Halcinonide]	82.2	80.8	
O=C(O)COCCN1CCN(C(c2ccccc2)c2ccc(Cl)cc2)CC1 (stereo not drawn) [Cetirizine dihydrochloride]	64.3	76.3	
CC(=O)OCC(=O)[C@H]1CC[C@H]2[C@@H]3CC[C@H]4C[C@H](O)CC[C@]4(C)[C@H]3C(=O)C[C@]12C [Alfadolone acetate]	101		remaining activity at 10 µM (human NTCP [2]; [5]): 116%
Cc1cc(C2CCCCC2)n(O)c(=O)c1.NCCO [Ciclopirox ethanolamine]			%NTCP activity (human NTCP [1]; [3]): 102.959%; %NTCP binding (human NTCP [2]; [4]): 84.4317%
CCOc1ccc(NC(C)=O)cc1 [Phenacetin]	83.5	82.1	
COc1ccc(C(=O)c2ccccc2)c(O)c1 [Oxybenzone]	79	99.7	
NC(=O)c1ncn([C@@H]2O[C@H](CO)[C@@H](O)[C@H]2O)n1 [Ribavirin]	99.9	98.2	
Cn1c(=O)c2c(ncn2C)n(C)c1=O [Caffeine]	64.7	76.3	
OC(Cn1cncn1)(Cn1cncn1)c1ccc(F)cc1F [Fluconazole]	132	101	
COc1ccc2c(c1)N(C[C@H](C)CN(C)C)c1ccccc1S2.O=C(O)/C=C\C(=O)O [Methotrimeprazine maleat salt]			%NTCP activity (human NTCP [1]; Prestwick library screen, [14C]taurocholate uptake, 10 µM drug): 117.482%; %NTCP binding (human NTCP [2]; [6]): 62.4454%
Clc1ccc(C(c2ccccc2Cl)C(Cl)Cl)cc1 (stereo not drawn) [Mitotane]	73.7	113	

Compound	remaining activity at 10 µM (human NTCP [1]) [%]	remaining activity at 10 µM (human NTCP [2]; 0.5 h, read-out: %NTCP binding) [%]	other results
CCCCC[C@H](O)/C=C/[C@H]1[C@H](O)CC(=O)[C@@H]1CCCCCCC(=O)O [Alprostadil]	106	79.5	
CCC(=O)O[C@@](Cc1ccccc1)(c1ccccc1)[C@@H](C)CN(C)C [Levopropoxyphene napsylate]	75.5	87.9	
CC(C)(C)NC[C@H](O)COc1nsnc1N1CCOCC1.O=C(O)/C=C\C(=O)O [Timolol maleate salt]			%NTCP activity (human NTCP [1]; [3]): 71.1626%; %NTCP binding (human NTCP [2]; [4]): 83.6828%
COc1ccccc1OCC(O)CO (stereo not drawn) [Guaifenesin]	97.5	71.1	
CC[C@@]1(O)C(=O)OCc2c1cc1n(c2=O)Cc2cc3ccccc3nc2-1 [Camptothecine (S,+)]			%NTCP activity (human NTCP [1]; [3]): 123.65%; %NTCP binding (human NTCP [2]; [4]): 63.5163%
CC(C)[C@H]1CC[C@H](C(=O)N[C@H](Cc2ccccc2)C(=O)O)CC1 [Nateglinide]	83	85.5	
CCCCOc1ccc(C(=O)CCN2CCCCC2)cc1 [Dyclonine hydrochloride]	29.4	81.3	
O=C1CCc2cc(OCCCCc3nnnn3C3CCCCC3)ccc2N1 [Cilostazol]	108	83.5	
COCCCOc1ccnc(C[S+]([O-])c2nc3ccccc3[nH]2)c1C (stereo not drawn) [Rabeprazole Sodium salt]	120	75.7	
C=CCc1ccccc1OCC(O)CNC(C)C (stereo not drawn) [Alprenolol hydrochloride]	135	76.1	
CCN(CC)CCNC(=O)c1cc(S(C)(=O)=O)ccc1OC [Tiapride hydrochloride]	131	44.4	
CC(C)(N)Cc1ccccc1.Cl [Phentermine hydrochloride]			%NTCP activity (human NTCP [1]): 125.158%; %NTCP binding (human NTCP [2]; [4]): 72.3854%
CC(CCc1ccc(O)cc1)NCCc1ccc(O)c(O)c1 (stereo not drawn) [Dobutamine hydrochloride]	70.4	91	
OCC(O)CN1CCN(c2ccccc2)CC1 (racemic) [Dropropizine (R,S)]			%NTCP activity (human NTCP [1]): 31.2029%; %NTCP binding (human NTCP [2]; [6]): 84.3257%
CN[C@@H]1C[C@@H](c2ccc(Cl)c(Cl)c2)c2ccccc21 [Indatraline hydrochloride]	47.4		remaining activity at 10 µM (human NTCP [2]; 0.5 h, read-out: %NTCP binding, Prestwick library screen, Myrcludex B-FITC binding, 10 µM drug): 98.7%
O=c1[nH]c(=O)n([C@H]2C[C@H](O)[C@@H](CO)O2)cc1F [Floxuridine]	84.1	103	
CCN(CC)C(C)C(=O)c1ccccc1 (stereo not drawn) [Amfepramone hydrochloride]	77.3		remaining activity at 10 µM (human NTCP [2]; [5]): 101%
Cc1cn([C@H]2C[C@H](N=[N+]=[N-])[C@@H](CO)O2)c(=O)[nH]c1=O [Zidovudine, AZT]			%NTCP activity (human NTCP [1]; [3]): 81.2022%; %NTCP binding (human NTCP [2]; [4]): 82.6125%
CCN(CC)CC#CCOC(=O)C(O)(c1ccccc1)C1CCCCC1 (stereo not drawn) [Oxybutynin chloride]	26.8	74.4	
C[C@]12CC[C@@H]3c4ccc(O)cc4CC[C@H]3[C@@H]1C[C@@H](O)[C@@H]2O [Estriol]	106	97.7	
CCN(CC)CC(=O)Nc1c(C)cccc1C [Lidocaine hydrochloride]	89.3	115	
Oc1ncnc2[nH]ncc12 [Allopurinol]	65	84	

Counter-ions that a name gives are not always drawn. Like-named read-outs stand apart in the source and are kept apart here.
